Measured values published in patent publication US20260200947A1, “FUSED CYCLIC COMPOUNDS AND USE THEREOF” (Jacobio Pharmaceuticals Co., Ltd., priority 2022, published 2026).

Each compound was assayed on AsPC-1 cells (K-Ras G12D) (assay: not given).
C#Cc1c(F)ccc2cc(N)cc(-c3nc4c5c(nc(OC[C@@]67CCCN6C[C@H](F)C7)nc5c3F)N3CC(F)CCCC3N4C)c12 (stereo partly shown) [Compound 47] was tested, and the IC50 was 39.9 nM.
Work on C#Cc1c(F)ccc2cc(N)cc(-c3nc4c5c(nc(OCC67CCCN6CC(F)C7)nc5c3F)N3CCC5CC5C(F)C3N4C)c12 (stereo not shown) [Compound 116] yielded an IC50 of 237 nM.
In the case of C#Cc1c(F)ccc2cc(N)cc(-c3nc4c5c(nc(OC[C@@]67CCCN6C[C@H](F)C7)nc5c3F)N3[C@@H](COCC[C@@H]3C3CC3)CO4)c12 [Compound 64], the IC50 is reported as 12.1 nM.

The compounds below were run against GppNp-KRAS G12D (Homo sapiens, UniProt P01116, G12D) (assay: biochemical).
For [2H]C#Cc1c(F)ccc2cc(N)cc(-c3nc4c5c(nc(OCC67CCCN6CC(F)C7)nc5c3F)N3CCCOCC3N4C)c12 (stereo not shown) [Compound 109], the IC50 was 34.4 nM.
Work on C#Cc1c(F)ccc2cc(N)cc(-c3nc4c5c(nc(OC[C@@]67CCCN6C[C@H](F)C7)nc5c3F)N3CCCCC(C)C3N4C)c12 (stereo partly shown) [Compound 121] yielded an IC50 of 170 nM.
CSc1cccc2cc(N)cc(-c3nc4c5c(nc(OC[C@@]67CCCN6C[C@H](F)C7)nc5c3F)N3CCCOC[C@H]3N4C)c12 [Compound 149] was tested, and the IC50 was > 1000 nM.
Compound C#Cc1c(F)ccc2cc(N)cc(-c3nc4c5c(nc(OC[C@@]67CCCN6C[C@H](F)C7)nc5c3F)N3CCC(F)CC(F)C3N4C)c12 (stereo partly shown) [Compound 115] has an IC50 of 67.4 nM.
In the case of C#Cc1c(F)ccc2cc(N)cc(-c3nc4c5c(nc(OC[C@]67CC(=C)CN6C[C@@H](OC)C7)nc5c3F)N3CCCOC[C@H]3N4C)c12 [Compound 170], the IC50 is reported as > 1000 nM.
Compound C#Cc1cccc2cc(N)cc(-c3nc4c5c(nc(OC[C@@]67CCCN6C[C@H](F)C7)nc5c3F)N3CCCOC[C@H]3N4C)c12 [Compound 51] has an IC50 of 64.4 nM.
In the case of C#Cc1c(F)ccc2cc(N)cc(-c3nc4c5c(nc(OC[C@@]67CCCN6C[C@H](F)C7)nc5c3F)N3CC[C@@H](O)CC[C@H]3N4C)c12 [Compound 84], the IC50 is reported as 115 nM.
For C#Cc1c(F)ccc2cc(N)cc(-c3nc4c5c(nc(OC[C@@]67CCCN6C[C@H](F)C7)nc5c3F)N3CC(F)CCCC3N4C)c12 (stereo partly shown) [Compound 47], the IC50 was 71.8 nM.
Compound C#Cc1c(F)ccc2cc(N)cc(-c3nc4c5c(nc(OCC67CCCN6CC(F)C7)nc5c3F)N3CCC5CC5C(F)C3N4C)c12 (stereo not shown) [Compound 116] has an IC50 of 65.8 nM.
For C#Cc1c(F)ccc2cc(N)cc(-c3nc4c5c(nc(OC[C@@]67CCCN6C[C@H](F)C7)nc5c3F)N3[C@@H](COCC[C@@H]3C3CC3)CO4)c12 [Compound 64], the IC50 was 75.7 nM.

The compounds below were run on AGS cells (K-Ras G12D) (assay: not given).
Compound C#Cc1c(F)ccc2cc(N)cc(-c3nc4c5c(nc(OC[C@@]67CCCN6C[C@H](F)C7)nc5c3F)N3CC(F)CCCC3N4C)c12 (stereo partly shown) [Compound 47] has an IC50 of 7.82 nM.
C#Cc1c(F)ccc2cc(N)cc(-c3nc4c5c(nc(OC[C@@]67CCCN6C[C@H](F)C7)nc5c3F)N3[C@@H](COCC[C@@H]3C3CC3)CO4)c12 [Compound 64] was tested, and the IC50 was 0.902 nM.

Tested on: AGS cells (K-Ras G12D)
Assay: not given
Remark: another data set of the same source
[2H]C#Cc1c(F)ccc2cc(N)cc(-c3nc4c5c(nc(OCC67CCCN6CC(F)C7)nc5c3F)N3CCCOCC3N4C)c12 (stereo not shown) [Compound 109] was tested, and the IC50 was 2.02 nM.
C#Cc1c(F)ccc2cc(N)cc(-c3nc4c5c(nc(OC[C@@]67CCCN6C[C@H](F)C7)nc5c3F)N3CCCCC(C)C3N4C)c12 (stereo partly shown) [Compound 121] showed an IC50 of 9.25 nM.
Work on C#Cc1c(F)ccc2cc(N)cc(-c3nc4c5c(nc(OC[C@@]67CCCN6C[C@H](F)C7)nc5c3F)N3CCC(F)CC(F)C3N4C)c12 (stereo partly shown) [Compound 115] yielded an IC50 of 3.4 nM.
C#Cc1c(F)ccc2cc(N)cc(-c3nc4c5c(nc(OC[C@]67CC(=C)CN6C[C@@H](OC)C7)nc5c3F)N3CCCOC[C@H]3N4C)c12 [Compound 170] gave an IC50 of 91.6 nM.
In the case of C#Cc1c(F)ccc2cc(N)cc(-c3nc4c5c(nc(OCC67CCCN6CC(F)C7)nc5c3F)N3CCC5CC5C(F)C3N4C)c12 (stereo not shown) [Compound 116], the IC50 is reported as 20.8 nM.

Each compound was assayed on SW620 cells (K-Ras G12V) (assay: not given).
C#Cc1c(F)ccc2cc(N)cc(-c3nc4c5c(nc(OC[C@@]67CCCN6C[C@H](F)C7)nc5c3F)N3CC(F)CCCC3N4C)c12 (stereo partly shown) [Compound 47] showed an IC50 of 7.33 nM.
C#Cc1c(F)ccc2cc(N)cc(-c3nc4c5c(nc(OCC67CCCN6CC(F)C7)nc5c3F)N3CCC5CC5C(F)C3N4C)c12 (stereo not shown) [Compound 116] was tested, and the IC50 was 23.6 nM.
With C#Cc1c(F)ccc2cc(N)cc(-c3nc4c5c(nc(OC[C@@]67CCCN6C[C@H](F)C7)nc5c3F)N3[C@@H](COCC[C@@H]3C3CC3)CO4)c12 [Compound 64] the IC50 was 4.97 nM.

Each compound was assayed on Capan-2 cells (K-Ras G12V) (assay: not given).
[2H]C#Cc1c(F)ccc2cc(N)cc(-c3nc4c5c(nc(OCC67CCCN6CC(F)C7)nc5c3F)N3CCCOCC3N4C)c12 (stereo not shown) [Compound 109] gave an IC50 of 0.885 nM.
C#Cc1c(F)ccc2cc(N)cc(-c3nc4c5c(nc(OC[C@@]67CCCN6C[C@H](F)C7)nc5c3F)N3CCCCC(C)C3N4C)c12 (stereo partly shown) [Compound 121] was tested, and the IC50 was 8.38 nM.
Work on CSc1cccc2cc(N)cc(-c3nc4c5c(nc(OC[C@@]67CCCN6C[C@H](F)C7)nc5c3F)N3CCCOC[C@H]3N4C)c12 [Compound 149] yielded an IC50 of 77.8 nM.
C#Cc1c(F)ccc2cc(N)cc(-c3nc4c5c(nc(OC[C@@]67CCCN6C[C@H](F)C7)nc5c3F)N3CCC(F)CC(F)C3N4C)c12 (stereo partly shown) [Compound 115] was tested, and the IC50 was 5.16 nM.
With C#Cc1c(F)ccc2cc(N)cc(-c3nc4c5c(nc(OC[C@]67CC(=C)CN6C[C@@H](OC)C7)nc5c3F)N3CCCOC[C@H]3N4C)c12 [Compound 170] the IC50 was 29.6 nM.
Work on C#Cc1c(F)ccc2cc(N)cc(-c3nc4c5c(nc(OCC67CCCN6CC(F)C7)nc5c3F)N3CCC5CC5C(F)C3N4C)c12 (stereo not shown) [Compound 116] yielded an IC50 of 5.97 nM.
In the case of C#Cc1c(F)ccc2cc(N)cc(-c3nc4c5c(nc(OC[C@@]67CCCN6C[C@H](F)C7)nc5c3F)N3[C@@H](COCC[C@@H]3C3CC3)CO4)c12 [Compound 64], the IC50 is reported as 0.785 nM.

Each compound was assayed against GppNp-KRAS G12V (Homo sapiens, UniProt P01116, G12V) (assay: biochemical).
For [2H]C#Cc1c(F)ccc2cc(N)cc(-c3nc4c5c(nc(OCC67CCCN6CC(F)C7)nc5c3F)N3CCCOCC3N4C)c12 (stereo not shown) [Compound 109], the IC50 was 56.9 nM.
Compound C#Cc1c(F)ccc2cc(N)cc(-c3nc4c5c(nc(OC[C@@]67CCCN6C[C@H](F)C7)nc5c3F)N3CCCCC(C)C3N4C)c12 (stereo partly shown) [Compound 121] has an IC50 of 707 nM.
In the case of CSc1cccc2cc(N)cc(-c3nc4c5c(nc(OC[C@@]67CCCN6C[C@H](F)C7)nc5c3F)N3CCCOC[C@H]3N4C)c12 [Compound 149], the IC50 is reported as > 1000 nM.
C#Cc1c(F)ccc2cc(N)cc(-c3nc4c5c(nc(OC[C@@]67CCCN6C[C@H](F)C7)nc5c3F)N3CCC(F)CC(F)C3N4C)c12 (stereo partly shown) [Compound 115] gave an IC50 of 316 nM.
For C#Cc1c(F)ccc2cc(N)cc(-c3nc4c5c(nc(OC[C@]67CC(=C)CN6C[C@@H](OC)C7)nc5c3F)N3CCCOC[C@H]3N4C)c12 [Compound 170], the IC50 was > 1000 nM.
C#Cc1cccc2cc(N)cc(-c3nc4c5c(nc(OC[C@@]67CCCN6C[C@H](F)C7)nc5c3F)N3CCCOC[C@H]3N4C)c12 [Compound 51] gave an IC50 of 103 nM.
For C#Cc1c(F)ccc2cc(N)cc(-c3nc4c5c(nc(OC[C@@]67CCCN6C[C@H](F)C7)nc5c3F)N3CC[C@@H](O)CC[C@H]3N4C)c12 [Compound 84], the IC50 was 146 nM.
C#Cc1c(F)ccc2cc(N)cc(-c3nc4c5c(nc(OC[C@@]67CCCN6C[C@H](F)C7)nc5c3F)N3CC(F)CCCC3N4C)c12 (stereo partly shown) [Compound 47] gave an IC50 of 163 nM.
In the case of C#Cc1c(F)ccc2cc(N)cc(-c3nc4c5c(nc(OCC67CCCN6CC(F)C7)nc5c3F)N3CCC5CC5C(F)C3N4C)c12 (stereo not shown) [Compound 116], the IC50 is reported as 203 nM.
In the case of C#Cc1c(F)ccc2cc(N)cc(-c3nc4c5c(nc(OC[C@@]67CCCN6C[C@H](F)C7)nc5c3F)N3[C@@H](COCC[C@@H]3C3CC3)CO4)c12 [Compound 64], the IC50 is reported as 75.1 nM.
